The target in assay [1] is T1, IL-1 receptor (IL-1R1), the receptor of the SPR assay (UniProt P14778 18-332, limits assumed).
T1 construct: also called fixed receptor
T1 sequence (looked up): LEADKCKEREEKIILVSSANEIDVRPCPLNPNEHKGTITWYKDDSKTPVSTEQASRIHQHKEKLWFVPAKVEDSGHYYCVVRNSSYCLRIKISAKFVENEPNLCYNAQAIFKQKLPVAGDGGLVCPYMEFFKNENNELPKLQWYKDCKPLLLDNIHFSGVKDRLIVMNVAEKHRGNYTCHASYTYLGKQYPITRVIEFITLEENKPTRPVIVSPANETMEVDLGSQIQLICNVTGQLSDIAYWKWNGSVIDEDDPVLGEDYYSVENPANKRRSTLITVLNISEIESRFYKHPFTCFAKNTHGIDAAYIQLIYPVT
Briefly: SPR, BIAcore 3000, 25 C, analyte 1.2 to 100 nM. The procedure:
All SPR measurements are performed on a BIAcore 3000 instrument (GE Biosciences, Piscataway, N.J.). BIAcore software-BIAcore 3000 control software V3.2 is used to operate and control the BIAcore 3000 instrument. SPR data from the BIAcore 3000 instrument are analyzed using evaluation software V4.1, and the data are plotted using Graph Pad Prism software version 5. […] The fusion protein shown is used as a ligand for constructing the reference channel of a chip. The analyte IL-1RN-Fc bound to the fixed receptor is measured, with a concentration of 1.2 to 100 nM (3-fold dilution). Each sample is injected at a flow rate of 30 μL/min for 3 minutes to bind to the fusion protein bound to the chip. Next, the binding buffer without analyte is passed through the chip at the same flow rate to dissociate the bound analyte. 500 s later, the regeneration solution (1M formic acid) is injected to remove the residual binding analyte. The data are analyzed using the Kinetics Guidelines and the manual fitting program attached to BiaEvaluation software V4.1.
(In general: In SPR one partner is held on a chip, and binding of the other changes the refractive index at the surface.)

Assay [2] addresses T2, IL-1 receptor (IL-1R1) on A375.s2 cells (UniProt P14778 18-569, limits assumed).
T2 sequence (looked up): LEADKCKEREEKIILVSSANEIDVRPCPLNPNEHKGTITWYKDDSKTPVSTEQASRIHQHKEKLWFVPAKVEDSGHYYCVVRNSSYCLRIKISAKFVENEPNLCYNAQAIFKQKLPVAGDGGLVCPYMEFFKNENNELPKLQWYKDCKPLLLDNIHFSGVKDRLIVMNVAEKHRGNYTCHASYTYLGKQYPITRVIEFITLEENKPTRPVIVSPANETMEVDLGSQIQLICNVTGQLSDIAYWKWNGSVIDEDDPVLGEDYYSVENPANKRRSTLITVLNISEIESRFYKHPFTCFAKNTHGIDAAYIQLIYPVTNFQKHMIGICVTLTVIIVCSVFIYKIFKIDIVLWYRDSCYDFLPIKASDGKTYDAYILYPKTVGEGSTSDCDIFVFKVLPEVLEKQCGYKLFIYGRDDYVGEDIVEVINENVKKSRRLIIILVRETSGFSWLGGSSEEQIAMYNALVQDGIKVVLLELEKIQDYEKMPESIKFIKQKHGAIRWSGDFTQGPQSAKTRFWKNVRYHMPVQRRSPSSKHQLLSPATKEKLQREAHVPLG
Briefly: cell-based or functional assay.

Assay [3] has as its target T2, IL-1 receptor (IL-1R1) on A375.s2 cells. Briefly: cell-based or functional assay. This is another data set of the same source.
Assay [4] has the same target. As to the kind of experiment: cell-based or functional assay. This is another data set of the same source.

Read-outs that look alike come from different tables or passages of the source.

B1: IL-1RN-Fc (wild-type IL-1RN fused to hIgG4 Fc S228P through the linker …) (Fc fusion)
chain: not shown
notes: also called wild-type IL-1RN-Fc
The Kd is the concentration at which binding is half-saturated. Low values mean a tighter complex, high ones a looser complex. For orientation: koff means a measure of how fast the partners let go of each other. One may read the kon as a measure of how fast the partners come together. A low value points to slow association. In the case of B1, in assay [1], the affinity, expressed as Kd, was 1.17 nM; the “Relative Affinity” value was 1 fold (reference IL-1RN-Fc); the koff was 0.000182 s⁻¹; the association rate constant (kon) is 155000 M⁻¹ s⁻¹.

B2: IL-1RN R5T R14T D74N-Fc (Fc fusion)
chain: RPSGTKSSKMQAFTIWDVNQKTFYLRNNQLVAGYLQGPNVNLEEKIDVVPIEPHALFLGIHGGKMCLSCVKSGNETRLQLEAVNITDLSENRKQDKRFAFIRSDSGPTTSFESAACPGWFLCTAMEADQPVSLTNMPDEGVMVTKFYFQEDEGGGGSGGGGSGGGGS[letters of human IgG4 Fc with S228P (EU numbers) omitted]
With B2, in assay [1], the dissociation constant (Kd) came to 0.091 nM, the “Relative Affinity” value is 12.9 fold (reference IL-1RN-Fc), the off-rate (koff) stood at 1.75e-05 s⁻¹ and the kon was 192000 M⁻¹ s⁻¹. Moreover, the “IC50(µg/ml), inhibition of IL-1β induced A375.s2 apoptosis (MTS, 490 nM)” value (“IC50(µg/ml), inhibition” for short) in assay [2] came to 1.26 µg/mL.

B3: IL-1RN D74N-Fc (with linker …) (Fc fusion)
chain: not shown
notes: It may be this molecule or the linker-free one; also called D74N (w/linker); IL-1RN D74N-hIgG4 Fc S228P
Turning to B3, in assay [1], the affinity, expressed as Kd, was 0.11 nM; the “Relative Affinity” value is 10.7 fold (reference IL-1RN-Fc); the koff was 2.06e-05 s⁻¹; the association rate constant (kon) is 188000 M⁻¹ s⁻¹. Further, the “IC50(µg/ml), inhibition” value in assay [3] amounted to 1.55 µg/mL. The “IC50(µg/ml), inhibition” value in assay [2] was determined as 1.39 µg/mL. For the same molecule, the “biological activity relative to D74N (w/o linker)” value in assay [4] was 3 fold.

For the origin of these results see US20240018206A1 (BEIJING VDJBIO, published 2024).
